Test results from the supplement of paper PMC3334620.
The full ranking holds about 33,000 sequences; the median of “E-score (-0.5 to 0.5)” is about -0.054, and the highest 2% start at about 0.39. Some of the results follow.

Biological target: Ylr278c (UniProt Q05854)
Experiment: PBM E-score (8-mer binding enrichment) (E-score (-0.5 to 0.5)); higher = stronger / more preferred TF binding; most listed sequences are background and not binding sites
Settings: protein concentration: 200 nM; construct: GST-DNA-binding domain
Protocol: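 Universal 'all 10-mer' protein binding microarrays (Agilent AMADID 015681) probed with GST-tagged S. cerevisiae TFs (full-length or DBD) made by in vitro transcription/translation (PURExpress), about 100-200 nM. Bound TF was detected with fluorescent anti-GST. Each ungapped 8-mer (which stands for itself and its reverse complement) is scored by the PBM enrichment score (E-score), a modified Wilcoxon-Mann-Whitney statistic from -0.5 to +0.5, computed with the Universal PBM Analysis Suite. Scale: above 0.35 generally sequence-specific binding.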

Sequence | PBM E-score
CTATACAC | -0.2
CTACTTGC | -0.0122
AGAGGACG | -0.121
CCTGCCAA | -0.0215
GGAGTAAA | 0.238
ATCGCGCC | 0.18
AACAGCTT | -0.0746
GGTTAGGA | -0.193
AACCATAT | -0.0256
CGGAGCGA | 0.415
CAAGTGGC | -0.0625
GCCAAGAA | 0.00882
TCTCAAAA | -0.0269
ATAAGCTG | -0.184
CACCTGAC | -0.27
ATTCGGGG | 0.345
CGGCTCCC | 0.136
CGCGCTTC | 0.146
ACTCAGAG | -0.119
AGACTCAT | -0.202
TAGACATA | -0.164
CGCACAAA | 0.192
ACGAACCT | 0.00357
ATTCGGAA | 0.36
CTAGTATA | -0.0386

Sequence | PBM E-score
AGGGTACT | -0.265
ATCCAGCG | 0.134
GCACCGTA | 0.0145
AATGATGT | 0.00414
GAAGCCTC | -0.113
TGAGTCCA | -0.134
AGTTCCGG | 0.433
AACTACAA | 0.065
GCCTTACC | -0.147
GGTGCGGA | 0.284
ATGTAACC | 0.0132
CAGACAAC | -0.0844
ACACGGAG | 0.419
CTCTTTCC | 0.152
CCTACTGA | -0.128
ACTCGGTG | 0.0389
ATAGCCTC | 0.1
AAACTTGG | -0.0263
TGTCAACA | -0.0997
GCCGGATA | 0.4
GGGTTTCA | 0.213
GGTCCCGA | 0.205
CGCGCTAC | 0.123
CAGCTTTA | -0.0383
AGCGCCTA | 0.0564

Sequence | PBM E-score
CGGGTGTC | 0.113
ACTAGCCA | -0.292
AAGACTCC | -0.044
TAAGCCCA | -0.159
AACGTCCC | -0.12
CGATCGCC | 0.251
CCAGCTAC | -0.241
GAAGTACA | -0.0211
AAAGGAGC | -0.055
CACGCTAC | -0.207
GGGTCGGA | 0.374
ACTGGTGG | -0.255
GAACCTCA | -0.126
GTGGACAA | 0.124
CGAGTGTC | -0.00398
AAGGGTCC | 0.216
CTATTACA | -0.0704
GGACACCC | 0.0133
GCAAGCGC | 0.129
AAATGAGT | 0.101
ACGAAAGT | -0.0616
AACCAATC | 0.118
AAGCGAGC | 0.112
TGGACCCA | -0.111
ATACATAG | -0.217

Sequence | PBM E-score
CATGACAG | -0.208
AACTTCAA | -0.155
ATAAAACC | 0.0587
CTACGCGA | -0.178
ATAAGAGA | 0.15
GTGAAATA | -0.135
GAACCTGA | -0.161
CAGCTTAA | -0.138
GGACAACA | 0.0824
ACCTTCGA | -0.146
ACACGACT | -0.185
CATCGCAA | -0.28
TCACGGGA | 0.139
AGATACAT | -0.223
TGACAAAA | -0.115
TGCGCCCA | -0.123
GGAAAGTA | 0.0736
CCCGTCAG | 0.0893
AACTGTGA | -0.122
ACCCCTCA | 0.0179
TCGCGGCA | 0.239
CCTACGGC | 0.0908
CACGACTG | -0.138
ATGCGATC | -0.0372
CATTAATC | 0.0504

Sequence | PBM E-score
GGAGGTCA | 0.0301
AGGACCAT | -0.121
GATCATAA | -0.0101
AAACATAC | -0.137
AGTCCTAC | -0.0571
CGAGCTAC | -0.0114
TACGGTCA | 0.0722
AGGTTGCG | -0.271
ACCGTTGC | 0.118
CTAATAGC | -0.191
AAATAGGC | 0.142
ATGTCAAG | -0.19
AGTATGGG | -0.24
TAAATGGA | 0.0153
GAAGACCC | -0.0933
CCCAAATA | -0.0778
GAGGCGCA | 0.119
AAGTGCGC | 0.152
GTATAAAC | 0.0178
CATAAGAA | -0.0489
GGAGCCTA | 0.207
GCGAACCA | -0.0272
CCACGCAG | -0.0875
ATGAAAGG | -0.0718
AATTATAA | 0.0424

Sequence | PBM E-score
TACCTTGA | -0.0479
ATACCGAT | 0.202
TAAGAAGA | 0.13
AAAGATGC | -0.226
ACCATACT | -0.2
CGACTCCC | 0.0244
TCCCCCCA | -0.243
CAAATGAA | -0.106
AATCCTAG | -0.0703
GCCTTGAA | -0.222
GCGGTTTA | 0.0277
ATGCGATA | -0.0857
ATGCGAGG | -0.152
CCCGCAGA | 0.286
AAAACCCC | 0.265
TCTACACA | -0.186
AAGTTCCA | -0.173
ATAGTTTG | -0.0573
CAAGGGCC | -0.0977
AGCCACGC | -0.149
AAATTGCC | 0.15
GAGGCTCC | 0.1
TAAAGTTA | -0.0394
CCGCGACC | 0.199
ATGGCTCC | -0.0569

Sequence | PBM E-score
CCCGGTCG | 0.317
AGCTAGAA | -0.26
AGCTGAGA | -0.168
CAGCAACG | 0.0188
GGACGACC | -0.0661
AAACGTTC | -0.254
CTACCCCA | -0.0217
CTGATCTA | -0.159
AGCAGCGG | 0.101
ACCGCTCT | -0.0365
GAGACCGC | 0.0415
CGCTTGTC | 0.0596
GTGCTGTA | -0.157
CATGAATC | -0.111
AATCGTAA | -0.0979
CCAGCATC | -0.0271
GATAAAAC | 0.202
TACCCGGA | 0.395
CCGAGTCA | 0.219
CCAATGGC | -0.0621
AGTCAGCC | -0.158
AGGAGTGG | -0.11
